Results: patent US20150307938A1, “METHOD TO IDENTIFY A NOVEL CLASS OF IMMUNOLOGIC ADJUVANTS” (Lancell, L.L.C., priority 2011, published 2015)

Tested on: dendritic cells
Test: Activated dendritic cells in the draining lymph node after topical application (earlier work)
Assay type: in vivo
Conditions: mice injected intradermally with peptide (SIINFEKL), topical DBP
Text: We previously identified an initial group of small lipophilic molecules that can traverse the stratum corneum, activate skin dendritic cells and induce their migration to the draining lymph node (U.S. Pat. No. 6,210,672). For example, such lipophilic molecules may include dibutyl phthalate, dibutyl-D-tartarate, N,N-diethyl-toluamide, dibutylfumarate, di(2-ethylhexyl)fumarate, diisooctylmaleate, diethylhexylmaleate, diisooctylfumarate, benzoic acid, behenylmaleate, dioctylphthalate, dibutylmaleate, dioctymaleate, dibutylsuccinate, dioctylsuccinate, dinonylphthalate, diisononylphthalate, dimethylphthalate, diethylphthalate, dipropylphthalate, diphenylphthalate, dibenzylbutylphthalate, diethylmethylphthalate and camphor. […] This response occurs in the absence of antigen.
Topical DBP induced a 16-fold increase in the IgG1 Ab response to OVA adsorbed to alum and increased the IgG2c response 26-fold.

**Q.** Which “Peptide-bearing activated dendritic cells in the draining lymph node, increase” value does the source give for `CCCCOC(=O)c1ccccc1C(=O)OCCCC` [DBP, dibutylphthalate] here?
**A.** The value was 40 fold.
